# ± gives the standard deviation of the averaged measurements. Whole data set: some 33,000 sequences, median “E-score (dimensionless, -0.5 to 0.5)” near -0.049, cut for the highest 2% near 0.37. The list shows a part of the results.
# Tested on: T1, PmTbr T-box DNA-binding domain (GST fusion)
# T1 sequence: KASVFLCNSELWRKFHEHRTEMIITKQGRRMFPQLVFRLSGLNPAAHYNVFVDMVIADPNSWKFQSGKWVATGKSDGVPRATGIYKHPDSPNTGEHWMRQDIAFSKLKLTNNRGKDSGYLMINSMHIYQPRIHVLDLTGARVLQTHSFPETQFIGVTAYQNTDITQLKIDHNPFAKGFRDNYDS
# Test: PBM E-score of 8-mer (E-score (dimensionless, -0.5 to 0.5)); Tbr is Tbrain of the sea star Patiria miniata (Pm) or the sea urchin Strongylocentrotus purpuratus (Sp); higher = stronger binding preference; most listed sequences are background and not binding sites
# Settings: the construct has about 5 more residues each side
# In short: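 Primer extension turned Universal Agilent oligonucleotide arrays double-stranded. They were incubated with 200 nM protein in PBS (pH 7.5); the protein was a GST-fused Tbr T-box DNA-binding domain expressed in BL21 E. coli at 20 °C and purified on glutathione. Every ungapped 8-mer was scored from the scanned, quantified probe intensities, and the Universal PBM Analysis Suite gave each an enrichment E-score averaged over duplicate arrays.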
row,Sequence,PBM E-score of 8-mer
1,AGAGTTGA,0.0684 ± 0.016
2,GAACCCAC,-0.277 ± 0.022
3,TGTACCAA,-0.0377 ± 0.049
4,ACCGGCCG,-0.17 ± 0.0053
5,ATGATACG,-0.101 ± 0.044
6,CTCTGGCC,-0.232 ± 0.07
7,GTGACCAA,0.0977 ± 0.11
8,ATTGGCTA,-0.147 ± 0.05
9,GTAACGTA,-0.266 ± 0.0049
10,CTTTATCC,-0.291 ± 0.027
11,CTCGGCAA,-0.0618 ± 0.075
12,CAAGCAAC,-0.0613 ± 0.033
13,ACCGAAGA,-0.0421 ± 0.0039
14,AATTCTAG,-0.0518 ± 0.044
15,AATCAATT,0.0618 ± 0.039
16,AGGATACC,-0.198 ± 0.1
17,AGGCACTA,-0.127 ± 0.068
18,ATACGTCC,-0.2731 ± 0.0014
19,AGCTAGCG,0.12 ± 0.01
20,AGTTTAGA,-0.0804 ± 0.033
21,CCTATAAG,0.167 ± 0.0054
22,AGGTGGAA,0.0714 ± 0.0024
23,ACAAGTCG,0.198 ± 0.003
24,ACAGATCC,-0.169 ± 0.077
25,AAACACGT,0.289 ± 0.021

row,Sequence,PBM E-score of 8-mer
1,AGCGACCG,-0.0525 ± 0.12
2,AACGGCGG,0.0126 ± 0.024
3,CAACAGGG,-0.199 ± 0.016
4,CTTGTTCA,-0.0656 ± 0.023
5,CCGTACGG,-0.233 ± 0.071
6,ACAGTGGG,-0.0158 ± 0.16
7,AAAGTATA,-0.0239 ± 0.088
8,ATAACGAA,0.0208 ± 0.016
9,CAAGGTTA,-0.0523 ± 0.0068
10,ACCTCCGC,0.148 ± 0.023
11,CAGACCAA,-0.1214 ± 0.001
12,CAAGCACA,0.0154 ± 0.062
13,AATAATTG,-0.0383 ± 0.073
14,GTCGTGAA,0.265 ± 0.018
15,TGCCAGCA,0.0676 ± 0.051
16,GCGGTACC,0.00592 ± 0.045
17,GAATTAGC,0.198 ± 0.036
18,GAGATCAC,0.201 ± 0.018
19,AAAGTAAT,-0.294 ± 0.11
20,AGAAGTAC,-0.211 ± 0.048
21,AACACACA,0.259 ± 0.021
22,TGCGCAAA,0.0872 ± 0.1
23,TCACAGCA,0.224 ± 0.016
24,CCGATAGA,-0.318 ± 0.0043
25,CAACAACG,0.111 ± 0.013

row,Sequence,PBM E-score of 8-mer
1,CCTTTAGA,-0.278 ± 0.016
2,CAGTAAAA,-0.261 ± 0.025
3,ACGGTATC,-0.101 ± 0.036
4,ATCGTGAA,0.155 ± 0.034
5,CCAGAAAA,-0.0136 ± 0.013
6,CTAATGAC,0.0896 ± 0.021
7,CCGTGGTA,-0.0871 ± 0.014
8,AACGGCCC,-0.201 ± 0.023
9,CATCATAA,-0.0413 ± 0.036
10,GCAATAGC,0.0642 ± 0.02
11,CGCAATGA,-0.174 ± 0.076
12,ATCAGTAA,-0.178 ± 0.0057
13,CTTCTTCA,-0.0193 ± 0.045
14,GGTCGACC,-0.253 ± 0.033
15,CATGCCCG,-0.0654 ± 0.012
16,GCAAAATA,-0.146 ± 0.013
17,TAAGAATA,-0.069 ± 0.035
18,ATGCGTCG,0.0529 ± 0.026
19,ACAGAGTG,0.0124 ± 0.051
20,AGAATAAA,-0.131 ± 0.073
21,AATGATAT,-0.143 ± 0.097
22,GTGCCTAA,0.0531 ± 0.03
23,GACGGCTA,-0.201 ± 0.095
24,AGGGACAT,-0.249 ± 0.004
25,GGGCTGAA,-0.15 ± 0.036

row,Sequence,PBM E-score of 8-mer
1,ATCGATTC,0.064 ± 0.021
2,CGTTGCCA,0.264 ± 0.012
3,CACACACG,0.181 ± 0.059
4,AGAGATAA,-0.0215 ± 0.049
5,CGTGGACC,-0.226 ± 0.088
6,AGTTTTTC,-0.16 ± 0.03
7,AACGCAGA,-0.13 ± 0.04
8,ATCGGCTG,-0.0239 ± 0.079
9,GTGTCCCA,0.0602 ± 0.027
10,GGAGGCAA,-0.288 ± 0.045
11,CAGCGAAC,-0.0234 ± 0.07
12,AGGTCGAG,-0.0267 ± 0.008
13,GCGCAATA,0.0523 ± 0.034
14,ATCAGGGG,-0.118 ± 0.0015
15,GGCACATA,0.1543 ± 0.001
16,AGAAGGGC,-0.11 ± 0.013
17,GTAATATA,-0.0166 ± 0.059
18,CGGGCACG,-0.212 ± 0.055
19,AACCTTCT,-0.0898 ± 0.0041
20,ACGTCGCA,0.142 ± 0.067
21,ACTGGGCA,-0.17 ± 0.057
22,GTATGCTA,0.00266 ± 0.025
23,CCGCTAGG,-0.0399 ± 0.016
24,CACCACAA,0.161 ± 0.081
25,AATTTCAA,-0.239 ± 0.02

row,Sequence,PBM E-score of 8-mer
1,ACAAACCT,-0.1869 ± 0.0004
2,GTAAGAAC,-0.0344 ± 0.05
3,CTCGTAAC,-0.0177 ± 0.081
4,ATATAAGG,-0.0787 ± 0.001
5,TATCACGA,0.104 ± 0.063
6,CCATCAGG,0.0307 ± 0.054
7,CGGACACC,0.296 ± 0.014
8,TAGTCTGA,-0.0796 ± 0.0091
9,AGCGGAGC,-0.183 ± 0.024
10,GTCCGACA,0.104 ± 0.032
11,GGGCGTTA,0.276 ± 0.0092
12,GGCAAATA,-0.0591 ± 0.074
13,CATCGGGA,-0.177 ± 0.044
14,ATGATTTA,-0.0212 ± 0.027
15,ACACCGAC,0.252 ± 0.03
16,GTCCCATA,-0.268 ± 0.029
17,CAGGAGGG,-0.11 ± 0.027
18,CCGCCGCA,-0.139 ± 0.016
19,CGTCCACA,0.00836 ± 0.014
20,CTCTCATC,-0.114 ± 0.086
21,CCCGGATA,-0.113 ± 0.049
22,CGGATCAA,0.167 ± 0.029
23,AAGATGTA,-0.167 ± 0.1
24,CATAATTA,-0.341 ± 0.13
25,CTCCGAGC,-0.186 ± 0.0065

row,Sequence,PBM E-score of 8-mer
1,ACGGGTTC,0.0788 ± 0.024
2,ACCCTAAT,0.0314 ± 0.045
3,GGCTCTAC,0.069 ± 0.037
4,TAAGACAA,-0.0589 ± 0.0022
5,GCAACCAA,-0.217 ± 0.038
6,CTTCCCAC,0.184 ± 0.0075
7,ATCGACGG,-0.00285 ± 0.066
8,GACCCTCC,-0.121 ± 0.03
9,TCAACGCA,0.0714 ± 0.017
10,GGAACACC,0.253 ± 0.049
11,AGAACTAA,-0.178 ± 0.015
12,GACGGTGA,-0.00151 ± 0.0082
13,CCATTCGA,-0.094 ± 0.029
14,CGTAGAGC,-0.3257 ± 0.0021
15,GACGTGGA,-0.183 ± 0.11
16,AAGTAGCC,-0.166 ± 0.04
17,AGAGAGAC,-0.191 ± 0.03
18,GCGAATTA,0.195 ± 0.014
19,ACAATTGG,0.144 ± 0.054
20,GAGCTTGC,-0.113 ± 0.019
21,AACATTTC,-0.0908 ± 0.045
22,CCGACTCC,-0.193 ± 0.022
23,GGTAATCA,-0.0165 ± 0.049
24,TAAAAGGA,0.113 ± 0.068
25,CTTGCGTC,0.00404 ± 0.013

row,Sequence,PBM E-score of 8-mer
1,AGTTTACA,0.14 ± 0.049
2,AAATCCAT,-0.126 ± 0.025
3,AGCTACAG,-0.0735 ± 0.056
4,ATGTGAAT,0.131 ± 0.039
5,CCAAGCGC,0.0354 ± 0.02
6,AAAGAAGC,-0.218 ± 0.034
7,CCTCCTTC,-0.0428 ± 0.04
8,ACAGCGCA,-0.0538 ± 0.03
9,ATCCGGCG,-0.102 ± 0.025
10,ATACGGAT,0.13 ± 0.072
11,GGACTGCC,-0.0971 ± 0.026
12,ATTAGCAC,0.417 ± 0.016
13,CCGACCGA,-0.242 ± 0.017
14,CTACCCCC,-0.368 ± 0.012
15,GAGCCGCA,0.0205 ± 0.0072
16,CGAATTGC,0.145 ± 0.031
17,AGGTACCG,-0.0424 ± 0.0029
18,GGACTATA,-0.046 ± 0.0076
19,GAATCTGC,-0.0483 ± 0.062
20,TCGCGGAA,0.129 ± 0.023
21,ACCCCTTC,-0.0359 ± 0.016
22,CATCGCCG,-0.0904 ± 0.042
23,CCACCGGC,-0.0335 ± 0.022
24,GATTTTGC,0.189 ± 0.061
25,GCGACACC,0.462 ± 0.011

row,Sequence,PBM E-score of 8-mer
1,CGTCTTTA,-0.282 ± 0.011
2,CCCTTGCC,-0.21 ± 0.056
3,ATTCTTAA,-0.159 ± 0.011
4,CCGGGAAC,-0.218 ± 0.045
5,ATCGGGTC,-0.0105 ± 0.12
6,CAGCACTC,-0.0345 ± 0.0064
7,GCGAGAGA,0.232 ± 0.015
8,CGTTAGAG,0.0417 ± 0.059
9,ATGTGGTA,0.0665 ± 0.092
10,GAGGACAC,0.103 ± 0.0019
11,ACCTCCAC,0.173 ± 0.016
12,ACTGATCT,-0.265 ± 0.037
13,GCTATCCA,0.00344 ± 0.057
14,GCGGCAAC,0.159 ± 0.028
15,ACATGCGA,0.138 ± 0.072
16,TCGTCAGA,-0.0513 ± 0.038
17,GGCGAGGA,0.156 ± 0.013
18,AGGATAGG,-0.12 ± 0.019
19,GAGTTATA,-0.261 ± 0.0085
20,CCCTTTTA,-0.0988 ± 0.019
21,GCCATACC,-0.262 ± 0.057
22,CGGACTAG,0.102 ± 0.057
23,AGGGGATG,-0.0557 ± 0.055
24,AAGTAGGC,-0.0378 ± 0.082
25,AGATGCCG,-0.306 ± 0.025

row,Sequence,PBM E-score of 8-mer
1,ACGATGGA,-0.0832 ± 0.044
2,CGGCCCAA,-0.195 ± 0.048
3,CGGAACCA,-0.0801 ± 0.039
4,ATTGATGA,-0.185 ± 0.068
5,ACCGCGAG,0.0859 ± 0.017
6,TTAGTAAA,-0.0101 ± 0.081
7,GACTAGCC,-0.0835 ± 0.014
8,TCTATAAA,-0.131 ± 0.025
9,CCCATGCA,0.19 ± 0.039
10,ACAACTAT,0.16 ± 0.061
11,CATCTTAC,-0.2745 ± 0.0018
12,AGCATAGG,-0.2071 ± 0.00035
13,ACACTAGA,0.245 ± 0.045
14,CGGATATC,-0.155 ± 0.05
15,ATAGTCGA,-0.141 ± 0.059
16,ACCTATCG,0.201 ± 0.0072
17,TTCACGAA,0.169 ± 0.045
18,ATGGCTTA,-0.162 ± 0.044
19,TACTTTAA,-0.0228 ± 0.022

# — the supplement of paper PMC4166925
